We go through 31 molecules from PubChem BioAssay AID1745853 (National Center for Advancing Translational Sciences (NCATS), 2022).

What all share (assay): Primary Screen for Target Class Profiling of Small Molecule Inhibitors of Methyltransferases
Experiment [1] has as its target Glycine N-methyltransferase (Homo sapiens) (UniProt Q14749). Conditions: purified enzyme, MTase-Glo SAH luminescence; measured here: GNMT inhibition; at 40 µM; stronger effect = lower value. Put shortly:
(§1)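 Each enzyme was assayed with SAM and its substrate. SAH formation detected by MTase-Glo luminescence; single-point 40 uM screen[…].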

Experiment [2] addresses Guanidinoacetate N-methyltransferase (Homo sapiens) (UniProt Q14353). Particulars: purified enzyme, MTase-Glo SAH luminescence; measured here: GAMT inhibition; at 40 µM; stronger effect = lower value. A digest of the protocol: as §1
Experiment [3] deals with Histamine N-methyltransferase (Homo sapiens) (UniProt P50135). Conditions: purified enzyme, MTase-Glo SAH luminescence; measured here: HNMT inhibition; at 40 µM; stronger effect = lower value. A digest of the protocol: as §1
For experiment [4], the target named is Nicotinamide N-methyltransferase (Homo sapiens) (UniProt P40261). Conditions: purified enzyme, MTase-Glo SAH luminescence; measured here: NNMT inhibition; at 40 µM; stronger effect = lower value. A digest of the protocol: as §1
In experiment [5] the target is Phenylethanolamine N-methyltransferase (Homo sapiens) (UniProt P11086). Conditions: purified enzyme, MTase-Glo SAH luminescence; measured here: PNMT inhibition; at 40 µM; stronger effect = lower value. A digest of the protocol:
as §1

Some of the results follow. The main result of the screen is listed elsewhere. These columns were measured beside it and carry no call.
% is scaled to controls: 0 for no effect and ±100 for the full control effect.

Consider `CC1CCN(C(=O)c2cc3n(n2)CC(C)(C(=O)NCc2ccccc2)N(C)C3=O)CC1` (stereo not given), for which the activity change, negative = inhibition was found to be 6.58% in experiment [1]; 0.231% in experiment [2]; 8.66% in experiment [3]; 1.26% in experiment [4]; 5.25% in experiment [5].

`CC1(CO)CC(O)[C@]2(C(=O)O)CCC34CC3(C=CC3[C@]5(C)C(CC[C@]34C)C(C)(CO)[C@@H](O)[C@H](O)[C@@H]5O)C2C1` (stereo not given in full): the activity change, negative = inhibition in experiment [1] was 3.54%; in experiment [2], 4.33%; in experiment [3] it was 7%; in experiment [4], -10.1%; in experiment [5], 6.14%.

As to `CC1(C(=O)NCc2ccc(F)cc2)Cn2c(nc3ccccc32)C(=O)N1Cc1ccc2c(c1)OCO2` (stereo not given), the activity change, negative = inhibition was 3.28% in experiment [1]; 0.714% in experiment [2]; 9.55% in experiment [3]; 11.5% in experiment [4]; 3.86% in experiment [5].

`Cn1c(=O)n(C)c2cc(S(=O)(=O)Nc3ccc(-c4nnc(-c5ccccc5)o4)c(Cl)c3)ccc21`: the activity change, negative = inhibition in experiment [1] is -32.3%; in experiment [2], 0%; in experiment [3], -1.67%; in experiment [4], -12.3%; in experiment [5] it was -2.61%.

For the molecule `COc1cc2nccc(Oc3ccc(NC(=O)Nc4cc(C)on4)c(Cl)c3)c2cc1OC`, the activity change, negative = inhibition in experiment [1] is -2.69%; in experiment [2], -0.241%; in experiment [3], 0.426%; in experiment [4], -37.7%; in experiment [5] it was 0.207%.

In the case of `CS(=O)(=O)N(C1CCOCC1)C1CN(C(=O)NCc2ccccc2)C1`, the activity change, negative = inhibition in experiment [1] was -1.35%; in experiment [2] it was -0.726%; in experiment [3], 2.17%; in experiment [4], -2.58%; in experiment [5] it was -0.237%.

`Cc1cc(CNC(=O)c2cc(C(C)C)n3ncnc3n2)c2[nH]c(C)c(C)c2c1`: the activity change, negative = inhibition is -5.2% in experiment [1]; -2.61% in experiment [2]; -1.38% in experiment [3]; -4.58% in experiment [4]; -2.96% in experiment [5].

On to `C=C1CC2C3(C)C(OC(C)=O)CC(=O)OC(C)(C)C3C(O)C(OC(C)=O)C2(C)C2C(=O)OC(C)C(=O)C12C` (stereo not given), for which the activity change, negative = inhibition in experiment [1] was -0.073%; in experiment [2] it was -3.79%; in experiment [3] it was 6.12%; in experiment [4], -14.6%; in experiment [5], -4.02%.

Take `Cc1c(Cl)cccc1N1C(=O)CSc2c(c3ccccc3n2C)C1C(=O)NCc1ccccc1` (stereo not given): the activity change, negative = inhibition in experiment [1] is 11.3%; in experiment [2] it was 1.06%; in experiment [3] it was 6.28%; in experiment [4], 11.4%; in experiment [5] it was 10.3%.

On to `N[C@H]1CCCN(C(=O)c2cnc(C34CC5CC(CC(C5)C3)C4)[nH]c2=O)C1`, for which the activity change, negative = inhibition in experiment [1] was -6.41%; in experiment [2], -9.87%; in experiment [3], -5.97%; in experiment [4], -20.5%; in experiment [5], -12.7%.

As to `CCCCCCCCCCCCCCC[C@H](O)[C@H](N)CO`, the activity change, negative = inhibition in experiment [1] is -1.94%; in experiment [2], 4%; in experiment [3], -0.1%; in experiment [4] it was -11.6%; in experiment [5], -1.66%.

Turning to `CNC(=O)c1cc(C)nc2onc(C3CCN(C(=O)NC4CCCC4)C3)c12` (stereo not given), the activity change, negative = inhibition in experiment [1] was -3.58%; in experiment [2] it was -4.64%; in experiment [3], -1.58%; in experiment [4], -9.47%; in experiment [5], -1.32%.

As to `C[N+](C)(C)CCO`, the activity change, negative = inhibition is 2.18% in experiment [1]; 14.8% in experiment [2]; 0.276% in experiment [3]; -1.25% in experiment [4]; 4.21% in experiment [5].

Turning to `CCC(C)NC(=O)c1ccc2c(=O)n(CC(C)C)c3nn(Cc4cccc(C)c4)c(=O)n3c2c1` (stereo not given), the activity change, negative = inhibition in experiment [1] is 1.41%; in experiment [2], 3.31%; in experiment [3], 8.18%; in experiment [4], -6.11%; in experiment [5] it was 2.44%.

Take `Cc1ccsc1C(=O)C1CCCN(Cc2ccc(OC(C)C)c(CO)c2)C1` (stereo not given): the activity change, negative = inhibition is -4.29% in experiment [1]; 0.967% in experiment [2]; -3.45% in experiment [3]; -4.05% in experiment [4]; 3.14% in experiment [5].

As for `CC(C)CNC(=O)c1ccc2c(=O)n(C)c3nn(CC(=O)NCc4ccccc4)c(=O)n3c2c1`, the activity change, negative = inhibition in experiment [1] was -0.813%; in experiment [2] it was 4.58%; in experiment [3], 2.34%; in experiment [4], -0.917%; in experiment [5], 0.204%.

Consider `O=C(NCc1ccccc1)N1CCCC(Cn2cnc3cccnc32)C1` (stereo not given), for which the activity change, negative = inhibition in experiment [1] is -4.31%; in experiment [2], 0.345%; in experiment [3], -1.92%; in experiment [4], -5.94%; in experiment [5], -4.1%.

`CNC(=O)c1cccc(-c2ccc3c(N4CCOC[C@@H]4C)nc(N4CCOC[C@@H]4C)nc3n2)c1`: the activity change, negative = inhibition is -16.4% in experiment [1]; -6.43% in experiment [2]; -5.71% in experiment [3]; -34.4% in experiment [4]; -2.14% in experiment [5].

Regarding `O=C(CCc1conc1-c1ccc(F)cc1)NC1CCCCC1`, the activity change, negative = inhibition in experiment [1] is -3.42%; in experiment [2], -6.48%; in experiment [3] it was -1.13%; in experiment [4], -10.7%; in experiment [5], -4.37%.

In the case of `COc1ccc(N2CCN(CCCNC(=O)Cn3c(=O)c4cccn4c4c(C)ccnc43)CC2)cc1`, the activity change, negative = inhibition in experiment [1] was -13.8%; in experiment [2], -10.4%; in experiment [3] it was -5.65%; in experiment [4], -26%; in experiment [5], -8.88%.

Regarding `Cc1cc2[nH]c(=O)[nH]c2cc1S(=O)(=O)NC1CCCCC1`, the activity change, negative = inhibition in experiment [1] was 14%; in experiment [2] it was 1.49%; in experiment [3], 11.5%; in experiment [4], 1.11%; in experiment [5], 1.03%.

Regarding `COc1ccc2c(=O)n(CC(=O)N(C)Cc3cc(C)no3)ccc2c1OC`, the activity change, negative = inhibition in experiment [1] is -0.651%; in experiment [2] it was 2.29%; in experiment [3], 0.961%; in experiment [4], -4.55%; in experiment [5], -10.1%.

As to `O=C(Nc1ccccc1)N1CCC(N2CC3CCCN3C2=O)CC1` (stereo not given), the activity change, negative = inhibition in experiment [1] is -8.91%; in experiment [2], -7.7%; in experiment [3], -5.21%; in experiment [4], -12.5%; in experiment [5], -8.55%.

As to `CN(C)CCOC(C)(c1ccccc1)c1ccccn1` (stereo not given), the activity change, negative = inhibition was 5.01% in experiment [1]; 13% in experiment [2]; 6.46% in experiment [3]; -0.329% in experiment [4]; 8.86% in experiment [5].

As to `COc1ccc(CN2C(=O)c3ccc(-c4ccco4)n3CC2(C)C(=O)NC2CCC(C)CC2)cc1` (stereo not given), the activity change, negative = inhibition in experiment [1] was 0.61%; in experiment [2] it was 1.19%; in experiment [3] it was 4.73%; in experiment [4], -0.462%; in experiment [5], -0.025%.

With `COc1cccc(N2CCN(C3=Nc4c(F)cccc4[C@H](CC(=O)O)N3c3cc(C(F)(F)F)ccc3OC)CC2)c1`, the activity change, negative = inhibition was 0.494% in experiment [1]; 12.4% in experiment [2]; 3.27% in experiment [3]; -18.8% in experiment [4]; 2.59% in experiment [5].

Regarding `Cc1ccc(CNC(=O)c2ccc3c(=O)nc4c(-c5cccc(C)c5)n[nH]n4c3c2)cc1`, the activity change, negative = inhibition in experiment [1] is -14.3%; in experiment [2], 3.68%; in experiment [3], 0.182%; in experiment [4], -5.25%; in experiment [5], -5.03%.

In the case of `CC(=O)c1ccc2c(c1)N(CCCN(C)C)c1ccccc1S2`, the activity change, negative = inhibition in experiment [1] is -7.52%; in experiment [2] it was 3.67%; in experiment [3], -8.62%; in experiment [4], -30.4%; in experiment [5], 7.51%.

`COc1cccc(-c2cc(=O)c3ccccc3o2)c1N`: the activity change, negative = inhibition in experiment [1] was -19.7%; in experiment [2], 2.29%; in experiment [3], -6.57%; in experiment [4], -12.9%; in experiment [5], -3.48%.

As for `CC1(C(=O)NC2CCCCC2)Cn2nc(-c3ccco3)cc2C(=O)N1c1ccc(F)cc1F` (stereo not given), the activity change, negative = inhibition in experiment [1] was 4.45%; in experiment [2], -2.48%; in experiment [3] it was 4.49%; in experiment [4], 5.45%; in experiment [5], 0.321%.

For `COc1ccc2nc([C@H]3CCN(C4CCCCC4)C3)[nH]c2c1`, the activity change, negative = inhibition in experiment [1] was -7.32%; in experiment [2], -4.49%; in experiment [3] it was -56.9%; in experiment [4] it was -23.4%; in experiment [5], -10.7%.
